Data from PubChem BioAssay AID894 (National Center for Advancing Translational Sciences (NCATS), 2007).
Out of some 150,000 compounds screened, about 6,500 (4.3%) were called active. Inconclusive results, whose numbers are uncertain, are shown with a selection of clear calls. The call rests on the fitted dose curve; in most records, active means well fitted inhibition curve with a large enough effect (not every such curve was filed as active); inconclusive means small, poorly fitted or top-dose-only effect, or another doubt; inactive means no such curve, though single readings can be large or run the other way. No potency is given beside an inconclusive call; the fits are too rough.

target: 15-hydroxyprostaglandin dehydrogenase [NAD(+)] (Homo sapiens) (UniProt P15428); test: qHTS Assay for Inhibitors of HPGD (15-Hydroxyprostaglandin Dehydrogenase); conditions: purified HPGD, NADH fluorescence kinetic, PGE2 substrate; activity change, negative = inhibition: hits give low values
Summary of the method: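 20 nM HPGD preincubated 15 min at room temperature with compound in 50 mM Tris-HCl pH 8, 0.01% Tween 20. Started with 1 mM NAD+ and 30 uM prostaglandin E2; NADH fluorescence (360/450 nm) read 5 times over 30-s intervals, last minus first.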
On the % scale 0 is the no-effect control and ±100 the full control effect; potency means the concentration at half of the fitted maximal effect; tags describe the fitted curve by direction and shape.

UniProt P15428, sequence (P15428 whole entry, looked up): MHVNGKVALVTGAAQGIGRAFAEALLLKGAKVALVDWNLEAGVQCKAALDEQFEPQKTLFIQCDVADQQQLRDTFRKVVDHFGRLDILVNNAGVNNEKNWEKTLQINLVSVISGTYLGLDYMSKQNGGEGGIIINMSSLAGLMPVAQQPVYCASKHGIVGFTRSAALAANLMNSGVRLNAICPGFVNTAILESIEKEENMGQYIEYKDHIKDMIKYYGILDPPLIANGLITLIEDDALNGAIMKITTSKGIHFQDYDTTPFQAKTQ

Row | SMILES | Potency | activity change, negative = inhibition
1 | CC(=O)Nc1ccc2nc(-c3ccncc3)[nH]c2c1 | inconclusive [inhibitor, partial curve] | 
2 | Cc1cc(C)cc(NC(=O)COc2ccc3c(C)c(Cc4ccccc4)c(=O)oc3c2)c1 | inconclusive [inhibitor, partial curve] | 
3 | CCOC(=O)c1ccccc1NC(=O)c1cn(-c2ccc(C)c(C)c2)c(=O)c2ccccc12 | inconclusive [inhibitor, single point] | 
4 | O=c1oc2c(CN3CCCCC3)c(O)ccc2c2c1CCCC2 | inconclusive [inhibitor, partial curve] | 
5 | COc1ccc(Oc2ncc3ncc(=O)n(Cc4ccc(F)cc4)c3n2)cc1 | active: 31.6 µM | 
6 | CCN1/C(=C2\OC(=S)N(C)C2=O)Sc2ccccc21 |  | inactive: -21.2%
7 | CC(C)CCN(C)C1CCN(S(=O)(=O)c2cccc(C(F)(F)F)c2)CC1 | inconclusive [inhibitor, single point] | 
8 | O=C(/C=C/Nc1ccc(F)cc1)c1ccc(Oc2ncccn2)cc1 |  | inactive: -8.41%
9 | COc1ccccc1C1CN(c2ccc(F)cc2F)N=C1c1cccs1 (stereo not given) | inconclusive [inhibitor, partial curve] | 
10 | O=S(=O)(c1cccc(S(=O)(=O)N2CCOCC2)c1)N1CCCCC1 |  | inactive: 7.66%
11 | Cc1ccc2[nH]c(=O)c(C3=NN(C(=O)CCC(=O)O)C(c4cccs4)C3)c(-c3ccccc3)c2c1 (stereo not given) | inconclusive [inhibitor, single point] | 
12 | Cc1ccc2nc(NC(=O)c3ccc(NS(=O)(=O)c4cccs4)cc3)sc2c1 | inconclusive [inhibitor, partial curve] | 
13 | CCc1ccc(/C=C/C(=O)c2cc(Br)ccc(=O)c2O)cc1 | active: 15.8 µM | 
14 | O=C(c1ccncc1)N1CCC2(CCCN(c3ccccn3)C2)CC1 | inconclusive [inhibitor, partial curve] | 
15 | CCOc1ccc(C(=O)Nc2ccc(C(F)(F)F)n(C)c2=O)cc1 | inconclusive [inhibitor, single point] | 
16 | Cc1csc2ncc(C(=O)NCc3ccccc3Cl)c(=O)n12 | inconclusive [inhibitor, partial curve] | 
17 | COCCn1c(=O)c(-c2ccc(F)cc2)nc2cnc(Oc3cccc(Cl)c3)nc21 | inconclusive [inhibitor, single point] | 
18 | CN1C(=O)c2cccc(NC(=O)CCc3ccccc3)c2C1=O | inconclusive [inhibitor, partial curve] | 
19 | COc1ccc(CNC(=S)Nc2ccccc2C)cc1 |  | inactive: -27%
20 | CCn1cc(C(=O)NCc2cccnc2)c(=O)c2cc(F)c(N3CCN(C(=O)c4ccco4)CC3)cc21 | inconclusive [inhibitor, partial curve] | 
21 | O=C(Nc1nnc(CCS(=O)(=O)c2ccc(Br)cc2)s1)c1ccc([N+](=O)[O-])cc1 |  | inactive: -4.97%
22 | O=C(CCCCCn1c(SCc2ccncc2)nc2ccccc2c1=O)NCc1ccco1 | active: 17.8 µM | 
23 | COc1ccccc1C(=O)Nc1ccccc1N1CCN(S(C)(=O)=O)CC1 | inconclusive [inhibitor, single point] | 
24 | CCCCCC(=O)NNC(=S)NC(=O)c1cccc([N+](=O)[O-])c1 | active: 10 µM | 

Row | SMILES | Potency | activity change, negative = inhibition
25 | O=C(NC(=S)Nc1ccc(S(=O)(=O)N2CCCC2)cc1)C1CCC1 |  | inactive: 2.8%
26 | Nc1ncnc2c1nc(Sc1ccc(Cl)cc1)n2[C@H]1O[C@@H]2COP(=O)(O)O[C@H]2[C@@H]1O |  | inactive: -3.62%
27 | O=C(Nc1cccnc1)c1ccc(COc2ccccc2Cl)o1 | active: 14.1 µM | 
28 | CCn1nc(C)c(/C=N/NC(=O)c2ccc3c(c2)c(C)c(C)n3Cc2ccccc2)c1C |  | inactive: -25%
29 | Cc1ccc(CNC(=O)CSc2c3c(nc4cc(Cl)ccc24)CCCC3)o1 | inconclusive [inhibitor, partial curve] | 
30 | Cc1cccc(-c2noc(-c3cc4ccccc4oc3=O)n2)c1 | inconclusive [inhibitor, single point] | 
31 | Cc1ccccc1CNS(=O)(=O)c1ccc2c(c1)OCCO2 | active: 25.1 µM | 
32 | Cc1csc(NC(=O)CCc2ccc(S(=O)(=O)N3CCOCC3)cc2)n1 |  | inactive: -21.3%
33 | O=C(CSc1nnc(-c2cccnc2)s1)Nc1cccc(C(=O)O)c1 |  | inactive: -25.2%
34 | COc1ccc(OC)c(NC(=O)Cc2coc3ccc4ccccc4c23)c1 | inconclusive [inhibitor, single point] | 
35 | CCCCCCOC(=O)C(C#N)c1nc2ccccc2nc1N1CCN(C)CC1 (stereo not given) |  | inactive: -18.4%
36 | CCOC(=O)C1=C(C)NC(SCC(=O)O)=C(C#N)C1c1ccco1 (stereo not given) | inconclusive [inhibitor, partial curve] | 
37 | CCn1c(-c2ccccc2)ccc(C#N)c1=O | inconclusive [inhibitor, partial curve] | 
38 | COC(=O)c1ccc(NC(=O)CN2CCN(c3ccc(Cl)cc3)CC2)cc1 |  | inactive: -28.4%
39 | Cc1cc2oc(=O)cc(-c3ccccc3)c2c(C)c1-c1sccc1C=O | active: 39.8 µM | 
40 | O=C(Cn1nnc2ccccc21)N/N=C\c1cccs1 | inconclusive [inhibitor, single point] | 
41 | c1ccc(-n2ncc3c(N4CCN(c5ccccn5)CC4)nc(N4CCOCC4)nc32)cc1 | inconclusive [inhibitor, single point] | 
42 | CCOc1ccc(C(CC(=O)O)NC(=O)c2cccs2)cc1 (stereo not given) |  | inactive: -14.4%
43 | COc1cc2cc(CN(Cc3nnnn3Cc3ccccc3)CC3CCCO3)c(=O)[nH]c2cc1OC (stereo not given) | inconclusive [inhibitor, partial curve] | 
44 | COc1cccc(-n2c(SCC(=O)NC3CCCCC3)nc3n[nH]c(C)c3c2=N)c1 | active: 15.8 µM | 
45 | COC(=O)Nc1sc2c(c1C(N)=O)CCCCCC2 | active: 14.1 µM | 
46 | C=CCn1c(SCC(=O)c2ccc(Cl)s2)nc2ccccc2c1=O |  | inactive: -13%
47 | Cc1ccc(N2C(=O)C3ON(c4ccccc4)C(c4ccncc4)C3C2=O)cc1 (stereo not given) |  | inactive: -26.8%
48 | CCN(CC)Cc1c(O)ccc2c(-c3ccccc3)cc(=O)oc12 | inconclusive [inhibitor, partial curve] | 

Row | SMILES | Potency | activity change, negative = inhibition
49 | CC(C)(C)CC(C)(C)NC(=O)CSCC(=O)Nc1ccc2ccccc2c1 | inconclusive [inhibitor, partial curve] | 
50 | Cc1oc2c(cc(NS(=O)(=O)c3ccc4c5c(cccc35)C(=O)N4)c3ccccc32)c1C(=O)OC(C)C |  | inactive: -11.4%
51 | COc1ccc(-c2nn(C)c(=O)c3ccccc23)cc1NC(=O)COc1ccc(C)cc1 | inconclusive [inhibitor, partial curve] | 
52 | CCOc1ccc(S(=O)(=O)Nc2cccc(OC)c2)cc1 | inconclusive [inhibitor, partial curve] | 
53 | O=C(NCc1cccs1)c1nc2c(nnn2Cc2ccccc2Cl)c(=O)[nH]1 | active: 6.31 µM | 
54 | COc1ccc2cc3cc(C(=O)NCc4ccc5c(c4)OCO5)oc3nc2c1 | inconclusive [inhibitor, partial curve] | 
55 | N#Cc1c(OCC(=O)c2ccccc2)nc2c(c1-c1ccco1)CCc1ccccc1-2 | inconclusive [inhibitor, single point] | 
56 | COc1ccc(/C=c2/sc3n(c2=O)NC2(c4ccccc4)N(C)C(=O)N(C)C2(c2ccccc2)N=3)cc1 (stereo not given) | inconclusive [inhibitor, partial curve] | 
57 | COc1ccc2c(c1OC)C(=O)N(c1ncn[nH]1)C2 | inconclusive [inhibitor, partial curve] | 
58 | COc1cc(/C=N/Nc2nc(Nc3ccc(C)cc3)nc(-n3nc(C)cc3C)n2)cc(OC)c1OC | inconclusive [inhibitor, partial curve] | 
59 | COc1ccc(C(=O)Oc2cccnc2)cc1OC |  | inactive: -9.62%
60 | CC1=NN(c2ccc(F)cc2)C(=O)C1C(c1cccc(O)c1)c1c(C)[nH]n(-c2ccc(F)cc2)c1=O (stereo not given) | active: 17.8 µM | 
61 | COc1cccc(C(=O)N(Cc2cc3cc(C)ccc3[nH]c2=O)CC2CCCO2)c1 (stereo not given) | inconclusive [inhibitor, partial curve] | 
62 | CCCc1cc(-c2n[nH]c(=S)n2CC(C)C)cs1 | inconclusive [inhibitor, single point] | 
63 | COc1ccc(C(=O)Nc2ccc(S(=O)(=O)Nc3nccc(C)n3)cc2)cc1OC |  | inactive: -26.5%
64 | O=C(CN1C2CCCC1CC(NC(=O)c1ccccc1)C2)Nc1nccs1 (stereo not given) |  | inactive: 0.261%
65 | O=C1N=C(N2CCCCC2)SC1=C1CCCC1 | inconclusive [inhibitor, partial curve] | 
66 | Cc1csc2ncc(C(=O)NCc3ccccn3)c(=O)n12 | inconclusive [inhibitor, partial curve] | 
67 | CC(NS(=O)(=O)c1ccccc1)C(=O)NCc1ccco1 (stereo not given) | inconclusive [inhibitor, single point] | 
68 | O=C(CSCc1c(F)cccc1Cl)NCc1cccnc1 |  | inactive: -11.3%
69 | CCCCCCn1cnc2c(c1=O)c1nc3ccccc3nc1n2Cc1cccs1 | inconclusive [inhibitor, partial curve] | 
70 | CN(C)c1ccc(/C=C(\C#N)C(=O)Nc2nc3c(s2)CCN(Cc2ccccc2)C3)cc1 |  | inactive: 0.0242%
